# In the supplement of paper PMC12632987:
# The full ranking holds about 4,500 sequences; the median of “median log2 fold change of GCK-ALFA target abundance (FLAG IP / Myc IP barcode read proportion)” is about 0.078, and the lowest 2% start at about -0.6. This is one part of the list.
# B1: GBRAP_160_4292 (protein)
# chain: SPELEKAKKLIEETFERTYALMEGQTAEERAVIVDVEYGALIYELSENPNVSDEALDKVDAIRDEVVATILANPDLTPEQLRALLEEARDRIIEVLEEDF
# B2: GBRAP_172_5005 (protein)
# chain: MVTLLELDLLGLSTEEAVARAVAALRAAHAATGGPIVVAVVTDTEETADAVEAALEAEAARLGADVRVVADAYRSEADRARVLAAARAEAIDLEYELEEA
# B3: GBRAP_160_4002 (protein)
# chain: SAEIEKLIKEIEELIAETKAEMEGLTPEERLTLVRGTVGEIIQLAEESPVVSDETLDKIAAIGDATVAAVKANADADLATWRAILDAYLAEVKALIEKDA
# B4: GBRAP_160_4671 (protein)
# chain: MEAIEKLLEEIREIMEEAVEFMEGESLEERIAVARVMTGEIILLLEESPLATDEVIEYADELGDELVEYIEENPDITPEELREKLEEFLEKLEEKLLEES
# B5: GBRAP_184_5348 (protein)
# chain: KTLDVLIEADTVDEAIEKLRKAAAEARAAGATLNVLIDVPINTVEEAEKLMDELARLAAEGIIAGTVGILNVSDDEEIIDVLVERADEAGIRLVLAINEE
# B6: GBRAP_11_2669 (protein)
# chain: KKEALEEALRLAREAEETARRLIEEGVDNEELRERLRRLLEELEELAEKHLDEAVKRDVRIARELFEEAEADPERALEYYERLAAALAVLAGNLELDLDE
# B7: GBRAP_160_4213 (protein)
# chain: MEKVEKIIKLLKEETERVISLIPELSAEEVANAAAVEFGAVLMEAVDLGEENDEILDTIAEAADRAVEVLLENKDASPEELAKKLKEIAEKAIEEIKKIA
# B8: GBRAP_139_3730 (protein)
# chain: DEAEKKVKEVVELTKKSLETGGEYVKEIAKLLNSMDEETQEKAAEAMAEVLESESFDKAEAFFDALIETLLTEYKNEDLADIVEAAANRALARVAVREEA
# B9: GBRAP_160_4750 (protein)
# chain: KEELKKLKEEVEEIFEEGIEILKEVPASEAPTVVRGTMGEVLMLVFSSEAASEELEDKVGAIADETEARAAANADAPVEEHIALLEEAKEKVLKAIEEEI
# B10: GBRAP_11_2820 (protein)
# chain: EKEKLKEGAKKAEELAKEIKELIESGNVTKEELEELLKKAEELLKFTKEYGDEDEAKLAEIALENIKEALKNPEKLKEYLTNALAAVRVLAGQYLLKYEE
# B11: GBRAP_160_4332 (protein)
# chain: MERFEALKKEIDEEFDETIELIEGESLEQVKVIISGTFGAIAMTFAEDPNVSDELVDFVIDVEDETLATLDANPDLSLEEIKALIEEARDKILEALDKEA
# B12: GBRAP_74_6499 (protein)
# chain: SAATEAAAEEFAALLRAGASYEELMAHLAKMNVEALNAAVIKATEVARANADELTEEQIDALAELADRVFAESEDPEAIKAAGELVKILYERELRLEAER
# B13: GBRAP_96_7101 (protein)
# chain: MLEEARKLVKELIEALDTDPERARELARELLEFPVEVIVEALVEEVKTPEEAYKVTRILLSLGDPKAEEVALEFAERSDGERSKAVIEAMEEYEREREAA
# B14: GBRAP_128_3388 (protein)
# chain: SQEEKLAKAKELIDAIVKADVETARVLTRELMELLGTLSLEDQEKVVEYLKSKLPELTAEKLDVIADVLREKRPEFDPESQNLIADAEVEALNEAEEKEE
# B15: GBRAP_39_5645 (protein)
# chain: EEEEEAELEFSYYEALGSKYMVDNGLSDEEVEEETKRLAEEVMKKYPEIKEEIEEALELAEKGSLFHKVALLGLLLEAKKGLPVEELKKHLKLLIKYFKS
# B16: GBRAP_78_6665 (protein)
# chain: EVEEELDKAIEHLDKAAKLTKQLPPEAQNELLDELVDAISEIVESEENGIDEEELEEALKEVEEAIELAKKLKTPEAEKLLEELEKAKEHIEKAIKLLKE
# B17: GBRAP_125_3073 (protein)
# chain: AEEEDLADLARIARALGFSDGEVEELVRLAAASSLRQALIALMLAEGAEETADAVARLTEEQARAVLREVAAELEANPDLTPEEVVALLLERARAAEAEA
# B18: GBRAP_160_4773 (protein)
# chain: SEKLEEAKKAIEEAKKEILEAIDTESPEEALTVVRGETGDIIMEVFELEFDNDELEDKIAEIMDKLVKEMEKNANASPEEKKKIVEKYAEEMIKTLEELS
# B19: GBRAP_48_5818 (protein)
# chain: MELDLEKLKKLVKETVEEMKEIYEEAKKEGLSDEDILKMIRAELGDLALELEEAGYDKAADWLRDPENSTELAEKLLELFKEGKYEEAVKYLLDKLLEVE
# Target: GABARAP, O95166
# Sequence (O95166 whole entry, the tested form may be a part): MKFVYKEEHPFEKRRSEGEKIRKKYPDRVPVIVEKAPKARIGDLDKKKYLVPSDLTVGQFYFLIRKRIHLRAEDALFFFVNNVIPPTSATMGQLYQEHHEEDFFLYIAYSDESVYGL
# Assay: median log2 fold change of GCK-ALFA target abundance (FLAG IP / Myc IP barcode read proportion) (log2 ratio); each designed protein is fused to an ALFA-tag nanobody in HEK293 cells to bring the named protein to FLAG-tagged glucokinase (GCK); Myc marks an untargeted standard; higher = target protein stabilised (more abundant)
# Settings: target protein: 3xFLAG-MCP-GCK-ALFA reporter; HEK293 landing pad (RPLP)
# Method in brief: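 HEK293 landing-pad cells received a recombined binder library fused to the ALFA nanobody and were induced with 2 μg mL^−1 doxycycline, then transfected with a plasmid encoding a FLAG-tagged target and a Myc-tagged standard. Lysates were collected after 48 h for anti-FLAG and anti-Myc immunoprecipitation, and the circular RNA barcodes were reverse transcribed, amplified and sequenced. Target abundance for each binder is the median log2 ratio of FLAG to Myc barcode read proportions. Barcodes had to reach a proportion of at least 10^−7 in both replicates, each binder needed at least 3 barcodes per replicate, a pseudocount of 10^−6 was applied, and the two replicates were pooled.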
row,Binder,median log2 fold change
1,B1,-0.00871
2,B2,0.169
3,B3,-0.103
4,B4,-0.453
5,B5,-0.247
6,B6,0.252
7,B7,-0.00987
8,B8,0.195
9,B9,-0.145
10,B10,0.223
11,B11,-0.263
12,B12,-0.772
13,B13,0.297
14,B14,0.104
15,B15,0.172
16,B16,0.339
17,B17,-0.058
18,B18,-0.122
19,B19,0.19
